# Test results taken from the supplement of paper PMC9446081.
# About 220 (0.56%) of roughly 39,000 compounds showed activity. This is one part of the list.
# Test system: Escherichia coli K-12 BW25113
# Assay: relative growth (OD600 normalised to plate interquartile mean) (fraction); higher = less growth inhibition, active = 0.2 or less
# Conditions: 50 µM; LB; incubation time: overnight (16-24 h)
# 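Note: static incubation at 37 °C against the wild-type strain, values averaged over two biological replicates.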
row,SMILES,relative growth
1,C=CCOC(=O)[C@H]1[C@@H]2C(=O)O[C@@H](c3ccccc3)[C@@H](c3ccccc3)N2[C@@H](c2ccc(OCCOC(=O)[C@H]3C[C@H]4C(=O)N[C@@H](Cc5ccccc5)C(=O)N4[C@H]3c3ccc(O)cc3)cc2)[C@]12C(=O)Nc1ccc(I)cc12,inactive: 1.08
2,C[C@@H]1CCCCO[C@H](CN(C)S(=O)(=O)c2ccccc2)[C@@H](C)CN([C@@H](C)CO)C(=O)c2cc(NS(=O)(=O)c3cn(C)cn3)ccc2O1,inactive: 1.02
3,C[C@H](CO)N1C[C@H](C)[C@@H](CN(C)S(=O)(=O)c2cn(C)cn2)Oc2ccc(NS(=O)(=O)c3ccc(Cl)cc3)cc2C1=O,inactive: 0.98
4,C[C@H](CO)N1C[C@H](C)[C@H](CN(C)Cc2ccc(C(=O)O)cc2)OCCCC[C@H](C)Oc2ccc(NC(=O)Nc3ccc(F)cc3)cc2C1=O,inactive: 0.972
5,COCC(=O)N(C)C[C@H]1Oc2cc(-c3ccc(OC)cc3)ccc2S(=O)(=O)N([C@H](C)CO)C[C@@H]1C,inactive: 0.986
6,Cc1nc(=O)c(/C=N/O)c(O)[nH]1,inactive: 1
7,C[C@H]1CN([C@@H](C)CO)C(=O)c2cccc(NC(=O)Nc3ccc(F)cc3)c2O[C@@H]1CN(C)Cc1ccc(Cl)c(Cl)c1,inactive: 0.954
8,O=C(Nc1ccc2c(c1)[C@H]1C[C@H](CC(=O)N3CCc4ccccc4C3)O[C@@H](CO)[C@H]1O2)C1CCOCC1,inactive: 0.998
9,O=C1O[C@H](c2ccccc2)[C@H](c2ccccc2)N2[C@H]1[C@@H](C(=O)N1CCCCCCC1)[C@]1(C(=O)Nc3ccc(C#CC4(O)CCCCCC4)cc31)[C@H]2c1ccc(O)cc1,inactive: 1.01
10,O=C(CCCCCNC(=O)OCc1ccc(CO[C@H]2C[C@@H](c3ccc(Br)cc3)C=C(C(=O)N3CCN(Cc4ccc5c(c4)OCO5)CC3)O2)cc1)NO,inactive: 0.981
11,CO[C@@H](CN(C)S(=O)(=O)c1ccc(F)cc1)[C@H](C)CN([C@H](C)CO)S(=O)(=O)c1cccc(Cl)c1,inactive: 1.02
12,C[C@H]1CN([C@@H](C)CO)S(=O)(=O)c2ccc(C3=CCCC3)cc2O[C@H]1CN(C)S(=O)(=O)c1ccc(F)cc1,inactive: 1.04
13,Cc1ccc(S(=O)(=O)N[C@@H]2CC[C@H](CCNC(=O)CN3CCOCC3)O[C@@H]2CO)cc1,inactive: 0.949
14,C[C@@H]1CN([C@H](C)CO)C(=O)CCCn2cc(nn2)CO[C@@H]1CN(C)C(=O)Nc1ccc(N2CCCCC2)cc1,inactive: 1
15,COc1ccc(S(=O)(=O)Nc2ccc3c(c2)C(=O)N([C@H](C)CO)C[C@H](C)[C@@H](CN(C)S(C)(=O)=O)O3)cc1,inactive: 1.01
16,C[C@@H]1CN([C@@H](C)CO)C(=O)c2cc(N(C)C)ccc2O[C@@H](C)CCCCO[C@@H]1CN(C)CC1CCCCC1,inactive: 0.99
17,C[C@H](CO)N1C[C@H](C)[C@@H](CN(C)C(=O)Nc2ccccc2C(F)(F)F)OCc2ccccc2-c2c(n(C)c3ccccc23)C1=O,inactive: 0.978
18,C[C@@H]1CN([C@@H](C)CO)C(=O)c2cc(NS(=O)(=O)c3ccccc3)ccc2O[C@@H]1CN(C)Cc1ccc(Oc2ccccc2)cc1,inactive: 0.967
19,c1ccc2c(CSc3nc4ccccc4o3)cccc2c1,inactive: 0.976

row,SMILES,relative growth
1,CC(C)(ON=C(C(=O)NC1C(=O)N2C(C(=O)[O-])=C(C[n+]3ccccc3)CSC12)c1csc(N)n1)C(=O)O (stereo unspecified),active: 0.0511
2,C[C@@H]1CN([C@@H](C)CO)C(=O)c2cc(NC(=O)Nc3ccc(F)cc3)ccc2O[C@@H](C)CCCCO[C@H]1CN(C)Cc1ccccc1,inactive: 0.998
3,C[C@@H]1CCCCO[C@H](CN(C)C(=O)C2CCCCC2)[C@H](C)CN([C@@H](C)CO)C(=O)c2cc(NC(=O)CCC(F)(F)F)ccc2O1,inactive: 0.996
4,COc1ccc(S(=O)(=O)Nc2ccc3c(c2)C(=O)N([C@H](C)CO)C[C@@H](C)[C@H](CN(C)CC2CC2)O3)cc1,inactive: 1.01
5,C[C@@H]1CN([C@@H](C)CO)C(=O)c2cccc(NS(=O)(=O)c3ccccc3)c2O[C@@H]1CN(C)Cc1ccncc1,inactive: 0.998
6,COCC(=O)Nc1ccc2c(c1)C(=O)N(C)[C@@H]1CC[C@@H](CC(=O)NC3Cc4ccccc4C3)O[C@H]1CO2,inactive: 1.05
7,Cc1ccc(S(=O)(=O)Nc2ccc3c(c2)C(=O)N([C@H](C)CO)C[C@@H](C)[C@@H](CN(C)S(=O)(=O)c2cccs2)O3)cc1,inactive: 0.951
8,C[C@@H]1CN([C@H](C)CO)C(=O)CCCn2cc(nn2)CO[C@H]1CN(C)S(=O)(=O)c1ccc(Oc2ccccc2)cc1,inactive: 0.982
9,C[C@H]1CN([C@@H](C)CO)C(=O)c2cc(NC(=O)C3CC3)ccc2O[C@H]1CN(C)C(=O)NC1CCCCC1,inactive: 0.98
10,CC(C)NC(=O)Nc1ccc2c(c1)C(=O)N([C@H](C)CO)C[C@@H](C)[C@@H](CN(C)CC1CCCCC1)OCCCC[C@H](C)O2,inactive: 1
11,COc1ccc(NC(=O)N(C)C[C@H]2OCCCC[C@@H](C)Oc3ccc(NC(=O)Nc4ccccc4)cc3C(=O)N([C@H](C)CO)C[C@H]2C)cc1,inactive: 1.02
12,O=C(CCc1cn(-c2ccc(C[C@H]3C(=O)O[C@@H](Cc4ccccc4)[C@H]4[C@@H]5C=CCCC=C5CN43)cc2)nn1)NO,inactive: 1.01
13,COC1C(O)CC(=O)OC(C)CC=CC=CC(OC2CCC(N(C)C)C(C)O2)C(C)CC(CC=O)C1OC1OC(C)C(OC2CC(C)(O)C(O)C(C)O2)C(N(C)C)C1O (stereo unspecified),inactive: 0.819
14,Cc1ccc(S(=O)(=O)N(C)C[C@H]2Oc3ccc(NS(=O)(=O)c4c(C)noc4C)cc3C(=O)N([C@H](C)CO)C[C@@H]2C)cc1,inactive: 1.01
15,C[C@@H]1CN([C@H](C)CO)C(=O)Cc2cc(NC(=O)Cn3cnnn3)ccc2O[C@@H]1CN(C)C(=O)Nc1ccc(C(F)(F)F)cc1,inactive: 0.957
16,C[C@H]1CN([C@@H](C)CO)C(=O)Cc2cc(N(C)C)ccc2O[C@@H]1CN(C)S(=O)(=O)c1ccc(Cl)cc1,inactive: 0.987
17,Cc1ccc(S(=O)(=O)Nc2cccc3c2O[C@@H](CN(C)S(=O)(=O)c2ccc(F)cc2)[C@@H](C)CN([C@H](C)CO)C3=O)cc1,inactive: 1.04
18,Cc1ccc(S(=O)(=O)N2C[C@@H](O)COC[C@@H]3O[C@@H](CC(=O)NCCCN(C)C)CC[C@H]32)cc1,inactive: 0.988
19,COc1ccc([Si](C)(C)[C@H]2[C@H](CCOC(=O)NCCCCCC(=O)NO)O[C@]3(C(=O)N(Cc4cccc(N5CCCCC5=O)c4)c4ccccc43)[C@@H]2C)cc1,inactive: 1.02

row,SMILES,relative growth
1,C[C@@H]1CN([C@@H](C)CO)C(=O)CCCn2cc(nn2)CO[C@H]1CN(C)Cc1cccc2c1OCCCO2,inactive: 0.992
2,COc1ccc(NC(=O)Nc2cccc3c2O[C@H](CN(C)Cc2ccc(-c4ccccc4)cc2)[C@H](C)CN([C@@H](C)CO)C3=O)cc1,inactive: 0.97
3,C[C@@H]1CN([C@@H](C)CO)C(=O)c2cccc(NC(=O)Nc3ccc(C(F)(F)F)cc3)c2O[C@@H]1CN(C)C(=O)Nc1ccc2c(c1)OCO2,inactive: 0.986
4,CCNC(=O)[C@H]1[C@H](CO)[C@H]2Cn3c(ccc(-c4ccc(OC)cc4)c3=O)[C@@H]1N2S(C)(=O)=O,inactive: 1.01
5,C[C@H]1CN([C@@H](C)CO)C(=O)c2cc(NC(=O)Nc3ccc4c(c3)OCO4)ccc2O[C@@H]1CN(C)Cc1ccc(Oc2ccccc2)cc1,inactive: 0.961
6,C[C@H](CO)N1C[C@H](C)[C@@H](CN(C)C(=O)Nc2ccccc2C(F)(F)F)OCc2cn(nn2)CCCC1=O,inactive: 1.02
7,CC(C)Oc1oc(C(=O)NC2CCCCC2)c(-c2ccc(Cl)cc2)c1S(=O)(=O)c1ccc(Cl)cc1,inactive: 0.997
8,O=C(CN1CCOCC1)N[C@H]1CC[C@H](CCn2cc(C3CC3)nn2)O[C@H]1CO,inactive: 0.988
9,O=C(C[C@@H]1C[C@@H]2c3cc(NC(=O)Nc4ccc(C(F)(F)F)cc4)ccc3O[C@@H]2[C@H](CO)O1)NCc1ccc(Cl)cc1,inactive: 0.989
10,Cc1ccc(S(=O)(=O)Nc2ccc3c(c2)C(=O)N([C@H](C)CO)C[C@@H](C)[C@@H](CN(C)C(=O)CCC(F)(F)F)OCCCC[C@@H](C)O3)cc1,inactive: 0.987
11,Cc1ccc(S(=O)(=O)Nc2ccc3c(c2)C(=O)N([C@H](C)CO)C[C@H](C)[C@@H](CN(C)Cc2ccncc2)OCCCC[C@@H](C)O3)cc1,inactive: 0.997
12,CC(C)(C)c1ccc2oc(CN)nc2c1,inactive: 0.988
13,C[C@H]1CN([C@@H](C)CO)C(=O)c2cc(NC(=O)Nc3cccc4ccccc34)ccc2O[C@H]1CN(C)Cc1ccc(Cl)c(Cl)c1,inactive: 1.02
14,COc1ccc(S(=O)(=O)N(C)C[C@@H]2OCCCC[C@@H](C)Oc3ccc(NC(=O)Nc4ccc(F)cc4)cc3C(=O)N([C@H](C)CO)C[C@@H]2C)cc1,inactive: 1.04
15,Cc1cc(-c2ccc(NN=C3C=Cc4c(S(=O)(=O)O)cc(S(=O)(=O)O)c(N)c4C3=O)c(C)c2)ccc1NN=C1C=Cc2c(S(=O)(=O)O)cc(S(=O)(=O)O)c(N)c2C1=O,inactive: 1.44
16,C[C@@H]1CN([C@@H](C)CO)C(=O)c2cccc(NC(=O)Nc3ccccc3)c2O[C@H]1CN(C)S(C)(=O)=O,inactive: 0.924
17,C[C@@H]1CN([C@H](C)CO)S(=O)(=O)c2ccc(C#CC3(O)CCCC3)cc2O[C@@H]1CN(C)C(=O)Nc1cccc(F)c1,inactive: 0.957
18,C[C@H](CO)N1C[C@H](C)[C@H](CN(C)C(=O)Nc2ccc(C(F)(F)F)cc2)Oc2ccc(NC(=O)Cn3cnnn3)cc2C1=O,inactive: 0.992
